From FireProtDB (doi:10.1021/bi980270i)

Settings: Homo sapiens; pH 7.4; 20 °C; GdnHCl; CD; Sodium phosphate 50 mM; reversible: yes (100%)

## Immunoglobulin heavy constant gamma 1 wild type (sequence left out)
  denaturant m value: 2.8 kcal/mol/M
  denaturant midpoint (higher = more stable): 3.25 M
  unfolding free energy: 9.1 kcal/mol
